These are yes or no findings as the source states them, for the method shown. In cells and extracts the contact can be indirect. Some entries that bind do so weakly or less than the wild type. Where a sequence is shown, tags or fusion partners need not be part of it.
Legend:
Experiment in all cases: FRET or BRET; FLIM-FRET with acceptor photobleaching (FRAP) in nuclei of transiently transformed N. benthamiana leaves; donor mCer3 on NF-YC, acceptor YFP on HY5 or NF-YB2; donor lifetime before and after YFP photobleaching; 2-4 days after infiltration
[1] = target: T1, NF-YB2 fused to enhanced yellow fluorescent protein (NF-YB2:YFP) (Arabidopsis thaliana) (UniProt Q9FGJ3)
T1 sequence: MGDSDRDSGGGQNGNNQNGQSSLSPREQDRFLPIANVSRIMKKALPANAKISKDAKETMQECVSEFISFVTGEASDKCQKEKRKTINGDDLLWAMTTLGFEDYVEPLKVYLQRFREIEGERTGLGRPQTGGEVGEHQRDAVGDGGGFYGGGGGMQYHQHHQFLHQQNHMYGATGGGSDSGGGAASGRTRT

[2] = target: T2, ELONGATED HYPOCOTYL 5 fused to enhanced yellow fluorescent protein (HY5:YFP) (Arabidopsis thaliana) (UniProt O24646)
T2 sequence: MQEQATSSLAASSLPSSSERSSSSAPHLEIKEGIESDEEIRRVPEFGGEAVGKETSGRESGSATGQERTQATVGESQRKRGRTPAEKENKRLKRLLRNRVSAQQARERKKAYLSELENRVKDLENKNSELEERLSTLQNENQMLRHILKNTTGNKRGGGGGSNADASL

[3] = target: T3, ELONGATED HYPOCOTYL 5 fused to enhanced yellow fluorescent protein (HY5:YFP) (Arabidopsis thaliana), O24646; details: remark: other sources report otherwise
T3 chain: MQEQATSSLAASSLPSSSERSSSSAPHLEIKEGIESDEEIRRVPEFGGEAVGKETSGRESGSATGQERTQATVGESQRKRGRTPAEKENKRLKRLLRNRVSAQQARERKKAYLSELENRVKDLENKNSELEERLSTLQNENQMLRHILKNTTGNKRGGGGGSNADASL

B1: NF-YC3 fused to modified cerulean 3 (NF-YC3:mCer3) (protein, UniProt Q9ZVL3 1-217)
chain: MDQQGQSSAMNYGSNPYQTNAMTTTPTGSDHPAYHQIHQQQQQQLTQQLQSFWETQFKEIEKTTDFKNHSLPLARIKKIMKADEDVRMISAEAPVVFARACEMFILELTLRSWNHTEENKRRTLQKNDIAAAVTRTDIFDFLVDIVPREDLRDEVLGGVGAEAATAAGYPYGYLPPGTAPIGNPGMVMGNPGAYPPNPYMGQPMWQQPGPEQQDPDN
[1]
  binding: binds
[2]
  binding: no binding

B2: NF-YC4 fused to modified cerulean 3 (NF-YC4:mCer3) (protein, UniProt Q9FMV5 1-250)
chain: MDNNNNNNNQQPPPTSVYPPGSAVTTVIPPPPSGSASIVTGGGATYHHLLQQQQQQLQMFWTYQRQEIEQVNDFKNHQLPLARIKKIMKADEDVRMISAEAPILFAKACELFILELTIRSWLHAEENKRRTLQKNDIAAAITRTDIFDFLVDIVPREEIKEEEDAASALGGGGMVAPAASGVPYYYPPMGQPAVPGGMMIGRPAMDPSGVYAQPPSQAWQSVWQNSAGGGDDVSYGSGGSSGHGNLDSQG
[1]
  binding: binds

B3: NF-YC9 fused to modified cerulean 3 (NF-YC9:mCer3) (protein, UniProt Q8L4B2 1-231)
chain: MDQQDHGQSGAMNYGTNPYQTNPMSTTAATVAGGAAQPGQLAFHQIHQQQQQQQLAQQLQAFWENQFKEIEKTTDFKNHSLPLARIKKIMKADEDVRMISAEAPVVFARACEMFILELTLRSWNHTEENKRRTLQKNDIAAAVTRTDIFDFLVDIVPREDLRDEVLGSIPRGTVPEAAAAGYPYGYLPAGTAPIGNPGMVMGNPGGAYPPNPYMGQPMWQQQAPDQPDQEN
[1]
  binding: binds
[2]
  binding: binds

B4: NF-YC4 fused to modified cerulean 3 (NF-YC4:mCer3), Q9FMV5 1-250 (protein)
chain: MDNNNNNNNQQPPPTSVYPPGSAVTTVIPPPPSGSASIVTGGGATYHHLLQQQQQQLQMFWTYQRQEIEQVNDFKNHQLPLARIKKIMKADEDVRMISAEAPILFAKACELFILELTIRSWLHAEENKRRTLQKNDIAAAITRTDIFDFLVDIVPREEIKEEEDAASALGGGGMVAPAASGVPYYYPPMGQPAVPGGMMIGRPAMDPSGVYAQPPSQAWQSVWQNSAGGGDDVSYGSGGSSGHGNLDSQG
[3]
  binding: no binding
